# Source: the supplement of paper PMC3334620
# Whole data set: some 33,000 sequences, median “E-score (-0.5 to 0.5)” near -0.054, cut for the highest 2% near 0.35. Some of the results follow.
# Target: T1, Stb5 (UniProt P38699)
# T1 sequence: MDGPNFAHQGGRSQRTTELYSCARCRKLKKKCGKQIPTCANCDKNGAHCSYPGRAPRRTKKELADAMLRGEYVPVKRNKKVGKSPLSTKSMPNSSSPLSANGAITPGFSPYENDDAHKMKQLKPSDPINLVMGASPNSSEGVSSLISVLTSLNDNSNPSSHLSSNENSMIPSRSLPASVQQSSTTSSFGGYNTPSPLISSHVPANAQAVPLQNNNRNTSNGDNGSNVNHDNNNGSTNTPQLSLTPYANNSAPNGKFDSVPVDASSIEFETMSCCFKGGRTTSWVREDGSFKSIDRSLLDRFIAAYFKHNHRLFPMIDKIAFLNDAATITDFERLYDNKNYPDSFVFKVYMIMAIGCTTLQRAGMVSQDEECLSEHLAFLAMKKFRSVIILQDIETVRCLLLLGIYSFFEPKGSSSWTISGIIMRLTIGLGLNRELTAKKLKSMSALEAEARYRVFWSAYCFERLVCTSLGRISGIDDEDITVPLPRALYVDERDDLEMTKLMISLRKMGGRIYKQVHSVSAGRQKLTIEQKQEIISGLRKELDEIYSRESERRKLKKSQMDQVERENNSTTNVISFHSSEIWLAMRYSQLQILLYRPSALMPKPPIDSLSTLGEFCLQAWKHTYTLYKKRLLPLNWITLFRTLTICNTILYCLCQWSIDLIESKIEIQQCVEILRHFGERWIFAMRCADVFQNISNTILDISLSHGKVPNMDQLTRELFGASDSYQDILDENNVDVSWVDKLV
# Test: PBM E-score (8-mer binding enrichment) (E-score (-0.5 to 0.5)); higher = stronger / more preferred TF binding; most listed sequences are background and not binding sites
# Conditions: protein concentration: 200 nM; construct: GST-full length
# Outline: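 GST-tagged yeast TFs (full-length or DNA-binding domain) were made by PURExpress in vitro transcription/translation and applied at about 100-200 nM to universal all-10-mer Agilent arrays. The arrays were made double-stranded by primer extension, on fresh or once-stripped slides. Bound protein was detected with fluorescent anti-GST, and scans were normalised with masliner. Each ungapped eight-base word, pooled with its reverse complement, received an E-score (modified Wilcoxon-Mann-Whitney statistic) from the Universal PBM Analysis Suite.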
row,Sequence,PBM E-score
1,GGAACTTA,0.258
2,GCTTCTGA,0.0129
3,ATTCACAC,-0.136
4,GCTACGCA,-0.123
5,AAGAGCGT,0.0561
6,CTCCGTGC,0.306
7,ACAGGGAC,-0.131
8,AGATAGAA,-0.122
9,ATCAACAG,0.00858
10,TAAACCCA,0.0551
11,CTTATCGA,-0.132
12,GGTATATA,0.214
13,AGCTCCAT,-0.125
14,GTCTATAA,0.0204
15,CATGAGGC,0.0421
16,ACACTATA,-0.0057
17,GGGATTAA,0.335
18,ATAAGGAA,-0.0897
19,GTCATCTA,-0.179
20,AGAAATCT,-0.0538
21,GACATGCC,0.0122
22,GTGTTGCA,0.0279
23,AGCCCTAC,-0.0947
24,CTATTAAC,-0.0133
25,CAATAGCG,0.156

row,Sequence,PBM E-score
1,TGGGAGAA,-0.227
2,ACATCCGC,0.339
3,ATCAGCCG,0.118
4,ACTCCCAG,-0.0146
5,ACAGGATG,0.00656
6,CATCCGAC,0.288
7,ACAGGAGA,-0.0747
8,ACTCCCAT,-0.125
9,GGCCTCCC,-0.0321
10,CTTCTGGA,-0.0613
11,AGAATTCA,-0.208
12,ACTGCAGT,-0.267
13,AGGGCCAG,-0.371
14,TGCTTCCA,-0.214
15,ACACATTG,0.0442
16,ACGAACAT,0.00195
17,CGCTGTAA,0.117
18,ATTTTCGG,0.269
19,ATTGACTG,-0.127
20,TTATACAA,0.101
21,CATCTCCA,-0.305
22,CCGGGACG,0.14
23,CCAGCACC,-0.0517
24,CCTTACCA,-0.171
25,AATGTTAT,-0.204

row,Sequence,PBM E-score
1,ACCACCCC,-0.084
2,ACTTAAAG,-0.0538
3,CTGTTAAC,0.0903
4,CACCTCTA,0.0684
5,CGATCAGC,0.0183
6,AAGGTTAG,-0.126
7,AGATCCCG,0.265
8,GGCCAGTA,-0.0306
9,CGTATTTA,0.0683
10,CAGGGCCC,0.00851
11,ACTCTCAA,-0.353
12,AGGCTACA,-0.26
13,CCTTAATC,0.109
14,CGCTGCTC,0.0409
15,AAATTCGC,0.00141
16,CCGACAGG,0.319
17,CAATACAG,-0.0499
18,ATCGCGTG,-0.0373
19,CTACAATC,-0.0982
20,CTTTGGAA,-0.0283
21,CGGATATA,0.443
22,CAACGCCC,0.0198
23,CGGCTTGA,-0.0077
24,TAAACAAA,0.00384
25,GACATAAC,0.244

row,Sequence,PBM E-score
1,CACAGAGC,-0.194
2,AGATTTTG,-0.137
3,AGTGTAGG,-0.0934
4,ACTCAAGT,-0.222
5,TGCGGACA,0.286
6,GGGCTACA,-0.0162
7,GCGCTTAC,0.215
8,AACAACAT,-0.175
9,CACCCGCA,0.104
10,ACAAAGGC,-0.0256
11,AATGTGCG,0.144
12,AGAACATC,-0.136
13,CTAACTTC,-0.186
14,AGCTTCTG,-0.0547
15,GGCACTGA,0.00323
16,AACGTGCC,0.0152
17,GCTTCAAA,-0.0474
18,GGACCTCA,-0.141
19,ATGAGGGC,0.0457
20,AGCTTAAA,0.0475
21,CGGTAAGC,0.109
22,AACCTATG,-0.17
23,GTCGCGAC,0.141
24,CCGCAAGC,0.179
25,CTTAGCAA,-0.123

row,Sequence,PBM E-score
1,CACGTGCA,-0.216
2,ACTGATTC,0.0161
3,GAAATTCA,-0.0853
4,ACCTTAGA,0.0651
5,AGAAGCTG,-0.215
6,AGGATGCC,-0.136
7,ACAGATTA,-0.0193
8,AGTAGAAC,-0.158
9,ATCATAAC,-0.0841
10,GGATCTTA,0.172
11,CCAGTAGA,-0.298
12,CTAGAAGC,0.0799
13,AGCATTCG,-0.0721
14,ATCTTAAC,0.018
15,CAAAAAGC,0.151
16,CGCGCGGC,0.327
17,AACAATTC,-0.211
18,AGGTTTAG,0.0353
19,ATTGTCCA,-0.191
20,CAGGTCTC,-0.271
21,TATCCCGA,0.18
22,CCTGGCAC,0.0119
23,AATTAGTG,-0.224
24,CTATTAAA,-0.156
25,TCGTTCAA,-0.0843

row,Sequence,PBM E-score
1,GAATCCCA,-0.198
2,CAGGGCCG,0.237
3,CGGAGTCA,0.391
4,AGTATAAC,0.228
5,GGTTAACA,0.0986
6,CCCGGCTA,0.337
7,CAACCCTC,-0.284
8,ATTGCTGC,-0.11
9,AATATCTG,-0.0221
10,TAGTTCCA,-0.0228
11,CACTGGGA,-0.362
12,AATGGTGC,0.085
13,AGGGGGGA,-0.38
14,ATTCTTCA,-0.0547
15,CGGTACAC,0.181
16,GACTGATA,0.0874
17,AGCTCCGC,0.406
18,AACAAGAC,-0.115
19,ACTAACGC,0.0901
20,ACTGAACC,0.214
21,CTGATGTC,-0.0208
22,GGGCATCA,0.00165
23,AACGGCGA,0.287
24,ATGACACC,0.317
25,ACTCCTAG,-0.158

row,Sequence,PBM E-score
1,GGGGCTGA,-0.185
2,TCGGAACA,0.0826
3,AATGGACG,0.0503
4,GAGCGTCC,-0.055
5,AGAGTCGC,-0.188
6,AAGGGCCT,-0.185
7,GAAACCGC,0.211
8,AATGTTGG,0.00207
9,ATTTAACG,0.207
10,CGTAGCCC,0.021
11,ACGTATCT,-0.0649
12,CCAATGCC,0.154
13,ATCGATTA,-0.0417
14,GCACTACA,-0.0984
15,GCTTCACC,-0.00744
16,CTCATCAG,-0.218
17,TCTCCCAA,-0.154
18,ATGTTTAG,-0.0384
19,AGGATTTA,0.203
20,CAGCGTGA,-0.18
21,AGGACCGA,0.33
22,AGTGTCAT,-0.196
